# Whole data set: some 16,000 sequences, median “Z-score” near -0.37, cut for the highest 2% near 3.1. The list shows a part of the results.
# Test system: RBM10 RRM1-ZnF-RRM2 (GST-tagged construct)
# Assay: RNAcompete 7-mer binding Z-score; higher = stronger binding preference
# Summary of the method: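 Bound RNA was identified by microarray hybridisation after GST-tagged RBM10 constructs (20 pmol) had been mixed with 1.5 nmol of a designed pool of 241 399 RNAs up to 41 nt, transcribed from microarray-derived DNA templates. Binding ran for 30 min at 4°C in 1 ml Hepes pH 7.8 buffer with KCl, NaCl, glycerol, DTT, BSA and glutathione Sepharose beads, with four 2-min washes at 4°C afterwards. For every heptamer motif, a one-sided Z-score for enrichment was computed across the probes that contained it.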
row,Sequence,RNAcompete 7-mer binding Z-score
1,CGGAAAA,0.854
2,UGGUAUG,1.5
3,ACGAUGU,-0.147
4,UGCUAAC,-0.581
5,GGAAAGA,2.23
6,CGCCUCC,-0.795
7,UUAGACC,-0.781
8,UCUAUAA,-0.573
9,GCGGUGA,1.39
10,AAGUAGC,0.126
11,AUGAGCG,0.942
12,ACUUAAA,-0.715
13,AUUACGU,-0.34
14,GCAGAUC,-0.271
15,AUCGAAA,-0.471
16,GUUCCUC,-0.723
17,AUAAUGC,-0.573
18,CAUUCCG,-0.766
19,UAUCUAC,-0.548
20,AAUUCCU,-0.872
21,AUUUGGU,0.381
22,UGGUGUA,1.24
23,AACCAUC,-0.712
24,UUGUGGG,2.44
25,ACAAUUA,-0.428

row,Sequence,RNAcompete 7-mer binding Z-score
1,GCCCUCU,-0.861
2,UUCGCUU,-0.828
3,CCACAUA,-0.737
4,AUAGGUC,0.512
5,CGCUUUG,-0.715
6,UUUCCAC,-0.573
7,AGGAUUU,0.024
8,CAGUCCG,-0.734
9,GGUGCAG,2.42
10,ACGGAAG,1.68
11,UUACGUU,-0.719
12,AAACACC,-0.457
13,GGUGUAG,2.97
14,ACUGACU,-0.686
15,UUGGGUU,2.05
16,AGUCGGG,1.66
17,ACAGUUA,-0.205
18,ACAGCUC,-0.832
19,AGUCUUU,-0.65
20,UAUCAUC,-0.65
21,CAAUAUA,-0.482
22,GCUGUGU,-0.3
23,GGUGCAC,0.931
24,AGCCCGC,-0.668
25,AUUUGAU,-0.398

row,Sequence,RNAcompete 7-mer binding Z-score
1,UACCGGU,-0.173
2,UACGUGA,-0.154
3,AACCCCA,-0.675
4,GCAGCAC,-0.242
5,AAGUUGA,0.749
6,GGGGAAC,2.58
7,UCAGAUC,-0.471
8,ACUCGAU,-0.595
9,ACGCAGC,-0.53
10,GAAUGGG,4.77
11,GCCCCAG,-0.391
12,GCUCAAC,-0.643
13,UGAUCAU,-0.457
14,GUGCUUA,-0.347
15,CAUCGUA,-0.468
16,AUACGCC,-0.752
17,UAACAUG,-0.0343
18,GGAAUUA,0.862
19,AAUGAAU,-0.111
20,GGUACCU,0.0568
21,AUCUGCC,-0.883
22,UAAGAGC,-0.0525
23,ACUAGCG,-0.103
24,ACGGCUA,-0.453
25,AUCGGCA,0.0313

row,Sequence,RNAcompete 7-mer binding Z-score
1,CCGUGAC,-0.311
2,GGCGAGC,1.87
3,AGUCAGU,0.13
4,AAGGGGG,3.91
5,GGGCCUG,0.0167
6,UGCCGUU,-0.766
7,CAAAACG,0.17
8,GUAGUGG,2.49
9,AAUUCAC,-0.643
10,ACUUACC,-0.814
11,UAAUCCC,-0.785
12,CGGAUUU,-0.34
13,AUCGUAA,-0.377
14,CAUCCAG,-0.49
15,CCGUCCU,-0.872
16,GUUUCGC,-0.442
17,AGUCCAU,-0.646
18,AGUACGA,0.286
19,AGUUCGA,-0.519
20,CAUCGCU,-0.843
21,UUACCAU,-0.628
22,GCAGCAG,0.778
23,UAGCGAA,0.137
24,CAGCGCU,-0.22
25,AUUAGGA,2.05

# Reference: the supplement of paper PMC5499739
